The other results are listed elsewhere or left out.
B1: chr2:182778012:182778113:+|3pUTR|ENSG00000077232|msi1|FALSE|unique (ssRNA)
RNA: GGGAGUUCUACAGUCCGACGAUCUAAAGAUAUAUGUGUUCAUGUAUUUUCUGAAAUUGCUUUCAUAGAAAUUUUCCCACUGAUAGUUGAUUUUUGAGGCAUCUAAUAUUUACAUAUUUGCCUUCUGAACUUUGUUUUGACCUGCAACAGAGGAUUGAGCAUCA
B2: chr12:64421256:64421371:+|CDS|ENSG00000184575|unk|FALSE|unique (ssRNA)
RNA: GGGAGUUCUACAGUCCGACGAUCGUUGACUUCCUGGCCAGAUUUUCUAAGUUGGUAAAUGGAAUGGGACAGUCAUUGAUAGUUAGUUGGAGUAAAUUAAUUAAGAAUGGGGAUAUUAAGAAUGCUCAAGAGGCACUACAAGCUCAACAGAGGAUUGAGCAUCA
B3: chr11:11963431:11963477:-|3pUTR|ENSG00000050165|msi1_unk|total|mutant (ssRNA)
RNA: GGGAGUUCUACAGUCCGACGAUCUUGACACUGUCCCUCUUUGGCAGUUGCAUCCGUAACUUUGAAAGGUAUAUGACUGAGCGCCGCAUACAGGUUAACCUGCAGAAACAGUACUCCGGUAAUUGCCGGGCGAGGAUUAUAAAUCAACAGAGGAUUGAGCAUCA
B4: ENSG00000124766:be:win_3101|3pUTR|ENSG00000124766|bound_else_gene|NA|bound_elsewhere_windowed (ssRNA)
RNA: GGGAGUUCUACAGUCCGACGAUCACACUUUUAAAAAACAAAAAAAGACAAGAGAGAUGAAAACGUUUGAUUAUUUUCUCAGUGUAUUUUUGUAAAAAAUAUAUAAAGGGGGUGUUAAUCGGUGUAAAUCGCUGUUUGGAUUUCCAACAGAGGAUUGAGCAUCA
B5: chr19:6729913:6730384:-|three_prime_utr|ENSG00000125734|control|control|control (ssRNA)
RNA: GGGAGUUCUACAGUCCGACGAUCUACGCCGUUGUCUUGCCUUUUUGGGGGUUGGGGUCUACACGGAGGUUGUGUUUACAAUGUAGAAACCUGUUUUCGCUGUGUGUGGCGGGGGCGCGGGCACAGGGUCCGUGUCUUUGUAUACAACAGAGGAUUGAGCAUCA
B6: chr1:225496770:225496921:-|3pUTR|ENSG00000154380|msi1|FALSE|unique (ssRNA)
RNA: GGGAGUUCUACAGUCCGACGAUCUUUUUUAAUUGCAGACAGUAAUGCAUGUCACACUAAUAUGUAGUGGCCUUUUCAAGGCCUAGUCCCAGGGAAAACAUUUUGUAGAGUAUAGGGGAGUGGGAGGAAGGGGAGGAAUAAUUUCAACAGAGGAUUGAGCAUCA
B7: chrX:135759845:135760351:-|three_prime_utr|ENSG00000269096|control|control|control (ssRNA)
RNA: GGGAGUUCUACAGUCCGACGAUCGUUUUCUACAAUGGAGCAGGAUAUUGCUGAAGUCUCCUGGCAUAUGUUACCGAAUCAAAUAGCCUUCCAGAGGCUAAGAAAUUUCUGUUAGUAAAAGAUGUUCUUUUUCCCAAAGCAUUUCAACAGAGGAUUGAGCAUCA
B8: chr8:6757792:6757893:+|3pUTR|ENSG00000155189|msi1|total|mutant (ssRNA)
RNA: GGGAGUUCUACAGUCCGACGAUCAUUUAUUACAACUUGACAGCUCCAAGCUCUUAUUACUAAAGUAUUCCGUAUCUUGCAGCCCGUUAAUAUUUCAUCUUUUGCUUAUUUCUACAAGUCAGUGAAAUAAAUUGUAUUCCGGAACAACAGAGGAUUGAGCAUCA
B9: chr7:16784014:16784129:+|3pUTR|ENSG00000106537|msi1_unk|total|mutant (ssRNA)
RNA: GGGAGUUCUACAGUCCGACGAUCGAUAAUUUACUUGCCGUCUUUUAUGAUUACACCAAUGUAUUCCCGAAACCGUUAUGUCUCCGGAAAUUGUGGUUUAAUUUUUGACUUUUACAGGUAAGUGCAAAGGAGAAGUGGUUUCAUCAACAGAGGAUUGAGCAUCA
B10: chr8:78602526:78602623:+|3pUTR|ENSG00000171033|msi1_unk|total|mutant (ssRNA)
RNA: GGGAGUUCUACAGUCCGACGAUCUUGUAUGUUGAUGAGUUGAUUAAGUCUAACAGAUUCAUCAAGACUCCAUUGCUUUAUUACCGAGACAUUUGAAAAUAUCCAUUAAUGUGAAUAUCACCUGAAUUCAGUCUGUUUGGUGUCCAACAGAGGAUUGAGCAUCA
B11: chr19:12699869:12699961:-|3pUTR|ENSG00000105576|msi1_unk|total|mutant (ssRNA)
RNA: GGGAGUUCUACAGUCCGACGAUCGAGGGUGGGGGUGCCGUUACUUCCCAGUUGGCCAGAAAACUGGGCCUUGCAGACCCCCUCCGCAUUUUUUCCCUUUUUUUCCUUCCCUGCUUUCUACUUCUUUGGGGAGCCCCUUGUGUUCAACAGAGGAUUGAGCAUCA
B12: chr3:14145182:14145283:-|3pUTR|ENSG00000154767|unk|total|mutant (ssRNA)
RNA: GGGAGUUCUACAGUCCGACGAUCUGAAAAUUAAGGAAAUGUCCGUAAAACCGAUGAGUGUUAAACCCGAUUGUAUUCAUUACCCGAUAAAAUGUAUAAAGCUCUCUGUACUAAGGAGAAAUGACUUUUAUAACAUUUUGAGAACAACAGAGGAUUGAGCAUCA
B13: chr6:36925625:36925726:+|3pUTR|ENSG00000198663|msi1|FALSE|unique (ssRNA)
RNA: GGGAGUUCUACAGUCCGACGAUCACUUCUCAAGUUAAUUUUGAUAAGCAGAAUCUACUACUGGCCAGAGCGACAGGAGUGGCUAGGGGUUGCCAGCCAGUCCCUUUCUGAUGAUCAAGGCCCUGCACAGCAGGAUGCCACAGGCAACAGAGGAUUGAGCAUCA
B14: chr4:87981664:87981765:+|CDS|ENSG00000118785|msi1|total|mutant (ssRNA)
RNA: GGGAGUUCUACAGUCCGACGAUCCACUGAUUUUCCCACGGACCUGCCAGCAACCGAAGUUUUCACUCCAGUUGUCCCCACAGCCGACACAUAUGAUGGCCGAGGUGACCGUGUGGUUUAUGGACUGAGGUCAAAAUCUAAGAACAACAGAGGAUUGAGCAUCA
B15: chr1:246907611:246907713:-|CDS|ENSG00000153207|unk|total|mutant (ssRNA)
RNA: GGGAGUUCUACAGUCCGACGAUCUGAAGUACCACACAUCCGAGAAAGUGUAAUGAGACAAGGGCGCCAUCUGUGUUUCCAGUCCGUAAGUCCAACAGGAACAGCUGUUUCAACUCUCCGUUACAUAAGCAGGACAAAUCAGCUCAACAGAGGAUUGAGCAUCA
B16: chr3:23980279:23980388:+|3pUTR|ENSG00000174738|unk|FALSE|unique (ssRNA)
RNA: GGGAGUUCUACAGUCCGACGAUCUUUUUCUUUUCCAAUAUAAAGUUUGCUGAAUGUACAAGAAGAGUUUAUCACUUAGGAUAUAGAAUUUUUUUAGGGGUUGGGGGAGGGGAUCUGUUAGGAAACUGUUACCUAUAAACAAAGCAACAGAGGAUUGAGCAUCA
B17: ENSG00000110321:stop:overlap|stop_codon|ENSG00000110321|stop_codon|NA|stop_codon (ssRNA)
RNA: GGGAGUUCUACAGUCCGACGAUCACAACUCCGCAAACGAAAAAGAACGACAUGAUGCAAUCUUCAGGAAAGUAAGAGGGAUCUAGGGGUGUUUAUUCCUGCUCCUAUGGCUCAAGGGAUGAGAAGUGACUUCUUUCUGGAGGGCAACAGAGGAUUGAGCAUCA
B18: chr12:64128047:64128160:+|CDS|ENSG00000196935|unk|FALSE|unique (ssRNA)
RNA: GGGAGUUCUACAGUCCGACGAUCGGCAGCCUGACCAACAUCAGCCGGCACGACUCCCUCAAGAAGAUCGACAGCCCUCCCAUUAGAAGGUCCACGUCAUCAGGGCAAUACACGGGCUUCAAUGACCACAAGCCACUGGACCCACAACAGAGGAUUGAGCAUCA
B19: chr3:30797676:30800881:-|three_prime_utr|ENSG00000144644|control|control|control (ssRNA)
RNA: GGGAGUUCUACAGUCCGACGAUCUGUGUGUGUGUGUGUGUGUGUGUGUGUGUGUGUGUGUGUGUGUCUAUCUGUGUCUGUAAUAGGAAGACCUAAGGAAAGUAAUACUUGAAAUGUGUUGCAAGUACAUGUUUUCAUUUGUGCCAACAGAGGAUUGAGCAUCA
B20: chr9:101390727:101390839:-|CDS|ENSG00000136897|unk|FALSE|unique (ssRNA)
RNA: GGGAGUUCUACAGUCCGACGAUCCAGAAAAGAGAAAGAGCCAGUGGUUGUUGAGACAGUAGAAGAGAAAAAGGAACCUAUCCUAGUGUGUCCACCUUUACGAAGCCGAGCAUACACACCACCUGAAGAUCUCCAGAGUCGUUUCAACAGAGGAUUGAGCAUCA
B21: ENSG00000119689:stop:overlap|stop_codon|ENSG00000119689|stop_codon|NA|stop_codon (ssRNA)
RNA: GGGAGUUCUACAGUCCGACGAUCCUUUCCUCCGCAAAAUCAAGGCAGCGGUAGAGGAUCCCAGAGUCCUCCUCCUGGAUCUUUAGGAGGAACCCACACACCCUACAAGUUGAUCAUGCAGGAACUGAAAACCAGUCUUCUCCCCAACAGAGGAUUGAGCAUCA
B22: ENSG00000107863:be:win_751|CDS|ENSG00000107863|bound_else_gene|NA|bound_elsewhere_windowed (ssRNA)
RNA: GGGAGUUCUACAGUCCGACGAUCCCUCCAUCACCAACAGAUGUUGCAAAAUCAAACACAGCAGUGUGUGUUUGCAAUGAAAGUGUAAGGACUGUCAUUGUGCCUUCUGAGAAGGUUGUAGAUUUGUUAUCCAAUAGAAACAACCAACAGAGGAUUGAGCAUCA

Target: MSI1 full-length (mouse, UniProt Q61474 1-362)
Sequence of UniProt Q61474 (Q61474 whole entry): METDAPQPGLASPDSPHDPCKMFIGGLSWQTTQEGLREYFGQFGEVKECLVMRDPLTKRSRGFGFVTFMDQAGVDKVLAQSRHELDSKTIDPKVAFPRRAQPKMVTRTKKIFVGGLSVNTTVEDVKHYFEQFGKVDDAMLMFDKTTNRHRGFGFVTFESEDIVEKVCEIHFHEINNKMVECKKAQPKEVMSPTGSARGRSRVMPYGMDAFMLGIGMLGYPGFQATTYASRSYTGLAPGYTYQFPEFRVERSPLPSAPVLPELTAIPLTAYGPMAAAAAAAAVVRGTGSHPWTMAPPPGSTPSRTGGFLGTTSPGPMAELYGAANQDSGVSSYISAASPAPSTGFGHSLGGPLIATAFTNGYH
Assay: nsRBNS (natural sequence RNA bind-n-seq); RBNS binding buffer (assumed for nsRBNS): 25 mM Tris pH 7.5, 150 mM KCl, 3 mM MgCl2, 0.01% Triton X-100, 500 ug/ml BSA, 20 U/ml SUPERase-In, 4 C; UNK is unkempt and MSI1 is Musashi-1; names of the RNAs are library labels; protein concentration not given here; high values mean tight binding

Row | Binder | binding signal [enrichment R]
1 | B1 | 0.605
2 | B2 | 1.28
3 | B3 | 0.352
4 | B4 | 0.328
5 | B5 | 0.535
6 | B6 | 11.3
7 | B7 | 0.57
8 | B8 | 1.85
9 | B9 | 0.465
10 | B10 | 0.436
11 | B11 | 0.62
12 | B12 | 0.275
13 | B13 | 0.401
14 | B14 | 0.314
15 | B15 | 0.467
16 | B16 | 3.65
17 | B17 | 7.48
18 | B18 | 0.622
19 | B19 | 0.617
20 | B20 | 0.597
21 | B21 | 0.536
22 | B22 | 0.479

From PMC12136788
